# Where “and” joins values, the source holds several entries; their conditions need not be identical. Equal values may be shown once. Out of some 420,000 compounds screened, about 64,000 (15%) were called active. The shares of active, inactive and inconclusive entries below differ from those in the screen. The call rests on the fitted dose curve; in most records, active means well fitted inhibition curve with a large enough effect; inconclusive means small, poorly fitted or top-dose-only effect; inactive means flat fitted curve, though single readings scatter. Potencies of inconclusive entries are doubtful fits and often do not repeat.
# Assay: qHTS for Inhibitors of human tyrosyl-DNA phosphodiesterase 1 (TDP1): qHTS in cells in absence of CPT; further: nearly all actives have a fitted effect of over 55% in size
# Details: DT40 Tdp1-/- hTDP1 cells, no CPT, ATP luminescence, 48 h; activity change, negative = growth inhibition: at 46.2 µM (top of the series) unless noted
# How it was run: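 Chicken DT40 Tdp1-/- cells stably complemented with human TDP1 were seeded at 400 cells/well with DMSO in place of 20 nM camptothecin. After compound pinning, cells grew at least 48 hr at 37 °C; viability read by CellTiter-Glo luminescence.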
# On the % scale 0 is the no-effect control and ±100 the full control effect; potency means the concentration at half of the fitted maximal effect; tags describe the fitted curve by direction and shape.
SMILES,"activity change, negative = growth inhibition",Potency
CC(C)c1ccc(CNc2ncccn2)cc1,inactive: -20.7%,
COc1ccc(C#CC2=CC(=O)CC(C)(C)C2)cc1,,"inconclusive: 23.1 µM [inhibitor, single point]"
CC(=O)c1c(C)[nH]c(C(=O)OCC(=O)Nc2ncc(Cl)c(C)c2Cl)c1C,,"inconclusive: 29.1 µM [inhibitor, single point]"
CC(=O)c1ccc(-n2nnnc2SCC(=O)Nc2sc(C)c(C)c2C#N)cc1,,"inconclusive: 32.6 µM [inhibitor, partial curve, poor fit]"
COc1ccc(-c2cc(C(F)(F)F)nc(SCCC(=O)Nc3cc(C)on3)n2)cc1,inactive: -13.9%,
COC(=O)c1c(NC(=O)COc2cc(C)c(Cl)c(C)c2)sc2c1CCCC2,inactive: 15.7%,
CCOc1c(Br)cc(/C=C2\N=C(C)OC2=O)cc1Br,,"inconclusive: 23.1 µM [inhibitor, single point]"
CSCC[C@H](NC(=O)N1CCn2c1nc1ccccc12)C(=O)NCc1ccc(F)cc1,,"inconclusive: 23.1 µM [inhibitor, single point]"
COc1ccc(/C=N/NC(=O)c2ccccc2O)cc1CN1CCOCC1,inactive: -3.81%,
Cc1ccc(S(=O)(=O)Nc2cc3c(cc2C#N)OCO3)cc1C(N)=O,inactive: -9.83%,
C=CCn1c(NCc2c[nH]c3ccccc23)nc2ccccc21,,"inconclusive: 25.9 µM [inhibitor, single point]"
Cc1ccc(C2CC(c3ccc(Cl)cc3)=NNC2=O)cc1 (centres undefined),inconclusive: -41.4% [inhibitor],
O=C(Nc1cccc(O)c1)c1cc(-c2cccs2)on1,,"inconclusive: 23.1 µM [inhibitor, single point]"
Cc1ccc(S(=O)(=O)NCC2CCC(C(=O)N(C)Cc3ccccc3)CC2)cc1 (centres undefined),,"inconclusive: 25.9 µM [inhibitor, single point]"
NC(=O)c1nsc(C(=O)N(c2ccccc2)C(C(=O)NCC2CCCO2)c2ccc(F)cc2)c1N (centres undefined),,"inconclusive: 29.1 µM [inhibitor, single point]"
Cc1cc(C)n(-c2ccc(C)c(Cl)c2)n1,inactive: -5.22%,
COc1ccccc1N(Cc1ccccc1)S(=O)(=O)c1cccc(C(=O)N2CCCCC2)c1,,active: 18.4 µM
Cc1ccccc1-c1cnc(C(O)c2ccc(Cl)cc2)[nH]1 (centres undefined),,"inconclusive: 16.4 µM [inhibitor, single point]"
COc1cccc(NC(=O)Nc2ccc3nsnc3c2)c1,,"inconclusive: 20.6 µM [inhibitor, single point]"
COc1ccc(S(=O)(=O)Nc2ccc3c(c2)n(C)c(=O)n3C)cc1F,,"inconclusive: 29.1 µM [inhibitor, single point]"
COc1cc2nc(N3CCCN(C)CC3)nc(NC3CCN(C)CC3)c2cc1OC,,active: 17.8 µM
O=S1(=O)CCO[C@H]2Cc3ccccc3[C@H]2N1Cc1ccccc1,,"inactive and inconclusive: 35.5 µM [inhibitor, single point]"
Cc1cn([C@H]2C[C@H](O)[C@@H](/C=C/C(=O)NCCCc3ccccc3)O2)c(=O)[nH]c1=O,inactive: -6.38%,

SMILES,"activity change, negative = growth inhibition",Potency
N=C1C(c2ccc(Br)cc2)=C(O)C2CCc3ccccc3N12 (centres undefined),,"inconclusive: 11.6 µM [inhibitor, single point]"
COc1cc(OC)cc(-c2cc(N3C(=O)Nc4ccccc4N3O)n[nH]2)c1,inactive: -0.215%,
COc1ccc(CNC(=O)CCCn2nc([N+](=O)[O-])cc2C)cc1,inactive: -13.2%,
CC(=O)Oc1ccc(C2(C)CC(C)(C)Oc3cc(OC(C)=O)ccc32)c(OC(C)=O)c1 (centres undefined),,"inconclusive: 9.2 µM [inhibitor, single point]"
CC1(c2ccccc2)CC(C)(C)N(C(=O)CSc2nnc(N)s2)c2ccccc21 (centres undefined),,"inconclusive: 29.1 µM [inhibitor, partial curve, poor fit]"
C[C@H]1CN([C@@H](C)CO)C(=O)c2cc(Br)cnc2O[C@@H]1CN(C)C(=O)Nc1ccc(C(F)(F)F)cc1,,active: 23.1 µM
COc1ccc(C(CNC(=O)c2oc3ccc(C)cc3c2C)N2CCCCC2)cc1 (centres undefined),,"inconclusive: 5.8 µM [inhibitor, full curve]"
COc1cc(/C=N/Nc2ccc(S(N)(=O)=O)cc2[N+](=O)[O-])cc(OC)c1O,inactive: -23.5%,
O=C(c1cc2c(s1)-c1ccccc1OC2)N1CCCC1,,"inconclusive: 14.6 µM [inhibitor, partial curve, poor fit]"
Cc1ccc(C2(C)NC(=O)N(CC(=O)Nc3cc(S(=O)(=O)N(C)C)ccc3C)C2=O)cc1 (centres undefined),,"inconclusive: 25.9 µM [inhibitor, single point]"
COC(=O)c1cc([N+](=O)[O-])c(-n2cncn2)c([N+](=O)[O-])c1,,active: 5.8 µM
CN(C)CCNS(=O)(=O)c1ccc(N2CCc3ccccc32)c([N+](=O)[O-])c1,,active: 25.9 µM
CCn1c(CSc2nnc(C)n2-c2ccccc2)nc2cc(S(=O)(=O)N(C)C)ccc21,inactive: -3.8%,
Cc1ccc(C(=O)OCC(=O)Nc2ccccc2Sc2ccccc2)cc1C,,"inconclusive: 29.1 µM [inhibitor, single point]"
C#CNC(=O)C1(CC=C)CCNCC1,inactive: 1.44%,
CCCNC(=O)c1cc(C2CCCCN2S(=O)(=O)c2ccccc2)on1 (centres undefined),,"inconclusive: 11.6 µM [inhibitor, partial curve]"
Cc1ccc(Cn2c(C)c(C(=O)NCc3ccccc3C(F)(F)F)sc2=O)cc1,inactive: -16.5%,
COc1ccc(OC)c(NC(=O)C(CC(=O)O)NCc2ccco2)c1 (centres undefined),inactive: 15.9%,
CCCCNS(=O)(=O)c1ccc(NC(=O)C(Sc2ccccc2)c2ccccc2)cc1 (centres undefined),,"inconclusive: 29.1 µM [inhibitor, single point]"
Cc1cc(C(=O)COC(=O)c2ccc(O)cc2)c(C)n1CC(F)(F)F,,"inconclusive: 0.461 µM [inhibitor, full curve, poor fit]"
CC(C)NC(=S)NNc1ncnc2sc3c(c12)CC(C)(C)OC3,,"inconclusive: 29.1 µM [inhibitor, single point]"
Cc1cccc(NC(=O)c2sc3nc4c(cc3c2N)CN(Cc2ccccc2)CC4)c1,,active: 18.4 µM
N#Cc1ccc(C(=O)Nc2ccn(-c3ccccc3)n2)cc1,,"inconclusive: 23.1 µM [inhibitor, single point]"

SMILES,"activity change, negative = growth inhibition",Potency
Cc1ccccc1-c1nc(S(=O)(=O)c2ccccc2)c(N2CCCC2)o1,,"inconclusive: 29.1 µM [inhibitor, single point]"
CCCCCCN1C[C@@H](O)[C@H](n2cc(C3CC3)nn2)C[C@@H]1c1ccc(Cl)cc1,,"inconclusive: 29.1 µM [inhibitor, single point]"
COCCn1c(SCCOc2ccccc2)nc2ccccc2c1=O,,"inconclusive: 20.6 µM [inhibitor, single point]"
CCCCNC(=O)C(NC(=O)c1ccc(-c2ccccc2)cc1)C(=O)c1ccccc1 (centres undefined),,"inconclusive: 20.6 µM [inhibitor, partial curve, poor fit]"
Cc1cn([C@H]2C[C@H](O)[C@@H](CNC(=O)[C@H](N)Cc3cscn3)O2)c(=O)[nH]c1=O,inactive: -25.1%,
CCC(CC)C(=O)N(C)c1c(C)nc2c(OCc3ccc(Cl)cc3Cl)cccn12,,active: 3.66 µM
COc1ccc(C2C=C(C34CC5CC(CC(C5)C3)C4)NC(=S)N2)cc1 (centres undefined),,"inconclusive: 25.9 µM [inhibitor, single point]"
CCOC(=O)N1CCN(C(=O)C[C@@H]2C[C@@]3(C(=O)OCC)CCC=C3N(Cc3ccc4c(c3)OCO4)C2=O)CC1,,"inconclusive: 25.9 µM [inhibitor, single point]"
O=C(CCN1C(=O)/C(=C/c2ccccc2)SC1=S)Nc1cccnc1,,"inconclusive: 18.4 µM [inhibitor, single point]"
Cc1ccc(-n2nc(C)c(/C=N/n3c(C)n[nH]c3=S)c2Cl)cc1,,"inconclusive: 25.9 µM [inhibitor, single point]"
CN(C)C(C(=O)Nc1cc(Cl)cc(Cl)c1)c1ccccc1 (centres undefined),,"inconclusive: 9.2 µM [inhibitor, partial curve]"
Cc1ccc2[nH]cc(C(=O)CCl)c2c1,,active: 4.11 µM
O=C(NC(=S)N1CCN(C/C=C/c2ccccc2)CC1)c1ccc(F)cc1,,"inconclusive: 23.1 µM [inhibitor, single point]"
CCCCn1c(N)c(N(CC(C)C)C(=O)c2cc(Cl)nc3ccccc23)c(=O)[nH]c1=O,inactive: -2.89%,
CCOC(=O)N1CCN(C(=O)CSc2nnc(-c3cc(OC)ccc3OC)o2)CC1,,active: 20.6 µM
COC(=O)c1sccc1NC(=O)CN(C)NS(=O)(=O)c1ccc(F)cc1,,"inconclusive: 23.1 µM [inhibitor, single point]"
O=c1c2ccccc2nc(/C=C/c2ccc(Cl)cc2)n1CCO,,"inconclusive: 20.6 µM [inhibitor, single point]"
COc1ccccc1N1CCN(C(=O)Cc2ccc(Cl)cc2)CC1,inactive: -15.4%,
Cc1nn(Cc2noc(C(=O)NCCc3ccccn3)n2)c(C)c1Br,inactive: -10.9%,
Cc1nc2sc(C(=O)Nc3ccc(F)cc3)c(N)c2c(-c2ccc(Br)cc2)c1C(=O)Nc1ccc(Cl)cc1,,"inconclusive: 25.9 µM [inhibitor, single point]"
CCCCNC(=O)C1(C)CCN1Cc1ccc(C(=O)OCC)cc1 (centres undefined),,"inconclusive: 23.1 µM [inhibitor, single point]"
CCOc1ccc(OCCC(=O)N(CCC2=CCCCC2)c2c(N)n(Cc3ccccc3)c(=O)[nH]c2=O)cc1,,"inconclusive: 29.1 µM [inhibitor, single point]"
O=C(COc1ccc2ccccc2c1)N/N=C/C1CC=CCC1 (centres undefined),inactive: -0.239%,
